# In the supplement of paper PMC3334620:
# Whole data set: some 33,000 sequences, median “E-score (-0.5 to 0.5)” near -0.035, cut for the highest 2% near 0.34. The list shows a part of the results.
# Target: T1, Mot3 (UniProt P54785)
# T1 sequence: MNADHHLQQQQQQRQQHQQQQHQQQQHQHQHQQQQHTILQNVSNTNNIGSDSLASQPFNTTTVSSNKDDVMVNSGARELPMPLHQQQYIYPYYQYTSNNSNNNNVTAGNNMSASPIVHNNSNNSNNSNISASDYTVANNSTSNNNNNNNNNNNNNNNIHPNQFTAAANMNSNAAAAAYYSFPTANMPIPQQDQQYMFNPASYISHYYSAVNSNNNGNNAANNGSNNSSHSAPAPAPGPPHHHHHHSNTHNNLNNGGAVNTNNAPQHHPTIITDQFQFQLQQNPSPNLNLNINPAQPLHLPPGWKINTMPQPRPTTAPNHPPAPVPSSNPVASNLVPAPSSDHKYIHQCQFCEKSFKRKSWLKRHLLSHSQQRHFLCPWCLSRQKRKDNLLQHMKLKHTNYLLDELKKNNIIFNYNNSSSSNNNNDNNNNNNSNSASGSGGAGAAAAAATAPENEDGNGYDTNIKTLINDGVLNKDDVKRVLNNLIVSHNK
# Experiment: PBM E-score (8-mer binding enrichment) (E-score (-0.5 to 0.5)); higher = stronger / more preferred TF binding; most listed sequences are background and not binding sites
# Conditions: protein concentration: 200 nM; construct: GST-full length
# Procedure, shortened: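 Yeast transcription factors carrying a GST tag, as full-length proteins or DNA-binding domains, were produced by PURExpress in vitro transcription/translation. About 100-200 nM protein was applied to universal all-10-mer Agilent arrays, double-stranded by primer extension on fresh or once-stripped slides. Bound protein was detected with fluorescent anti-GST, and scans were normalised with masliner. The Universal PBM Analysis Suite gave each ungapped eight-base word, pooled with its reverse complement, an E-score, a modified Wilcoxon-Mann-Whitney statistic.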
row,Sequence,PBM E-score
1,GACGATCC,-0.0936
2,ACGCGGCG,0.11
3,ACCTTTCA,-0.0642
4,ATATTGTC,-0.136
5,GCCCAACC,-0.0528
6,CAGACACG,0.087
7,CTCCAATC,-0.113
8,ATGCTAAG,-0.0299
9,AACGTGTG,0.128
10,AAGAGCCT,0.0133
11,CTGATTGC,-0.0147
12,GATACAGC,-0.158
13,ACGCTCAC,-0.0704
14,GTCAGATA,-0.0988
15,CTCGGAGA,-0.205
16,ATATCTAA,0.0848
17,AAATCGGG,-0.0585
18,TCTTAAGA,-0.0988
19,ATGCTGCA,0.088
20,ACTTTTCT,-0.0827
21,GCCCCCCA,-0.345
22,AAACAGTT,0.0645
23,GATTGGCC,-0.2
24,GCTACAGC,-0.167
25,ACTGCCGA,-0.0148

row,Sequence,PBM E-score
1,CACACAAC,0.199
2,AGTAGCAT,-0.0628
3,AAACTTGA,0.0965
4,ACGCACTC,0.0335
5,AGTTGCAA,0.00053
6,AAGACTCA,-0.24
7,ATGATACA,0.0801
8,AAATACTT,0.0748
9,GGCGTAAC,-0.0669
10,ACATACGC,0.207
11,ATAAACAG,0.0736
12,CGGTTATC,-0.224
13,GGTAGATA,-0.0433
14,TAACTAGA,0.141
15,AATAATGG,0.0428
16,CAATCACG,-0.0483
17,TGTAAGAA,0.279
18,TCCGGCAA,-0.0328
19,CGAGGTAA,-0.0165
20,CTTAGGTA,0.139
21,AACGACTA,0.0206
22,AGAGACCA,-0.126
23,AACCCGCT,-0.102
24,ACTGAATA,0.129
25,CAAGCGCA,0.142

row,Sequence,PBM E-score
1,CTTCTGAC,-0.0331
2,ACGAGCTG,-0.162
3,CCATAGGC,0.239
4,TGCTCCAA,-0.0843
5,ATCACAGG,0.129
6,ACATGAAC,0.256
7,CCCAGTCG,-0.232
8,AAACGTAC,0.0979
9,ATGCTACG,-0.0447
10,TCTCGTAA,0.116
11,GTATTCAC,0.188
12,CCGTGCTA,0.0935
13,ACTCAGCC,-0.319
14,ATACGTAG,0.24
15,GTTCTGCA,0.0276
16,AATTTCTG,0.00309
17,AAATTTAA,0.0818
18,GAGCATAA,0.0505
19,ATGACAAT,0.123
20,CTCATAAC,-0.0328
21,ATGAATGC,0.0302
22,TCGCTACA,-0.0346
23,ACCGGCGT,0.0467
24,TAAAGACA,0.185
25,CCACCAAC,-0.213

row,Sequence,PBM E-score
1,CAGGCTGA,-0.219
2,GAATGCTC,-0.255
3,CGCCTCTC,-0.366
4,AGTTAATA,0.201
5,AGACAGCT,-0.136
6,CGAATCGC,-0.174
7,AGGGTGAT,-0.19
8,CTCACCGC,-0.186
9,GCACCCGC,-0.138
10,CGCAAAAC,0.0841
11,ACTGCACT,-0.108
12,ACGCCTTC,0.236
13,AGACCTCT,-0.223
14,ATAGGTAA,0.356
15,CACGAATG,0.0319
16,CTTGAGAC,-0.203
17,CATGACCG,0.101
18,ACTGCACA,0.126
19,CATCGTCG,-0.172
20,ATGCCCAT,-0.0499
21,CTTTGAGC,-0.0874
22,AGTCGCCA,-0.369
23,CTCTTAAG,-0.0429
24,ATCCCCGG,-0.272
25,CGAAGACC,-0.286

row,Sequence,PBM E-score
1,TCCTTCCA,0.229
2,CATTATTC,0.0976
3,ATCCTGCG,0.0225
4,ATAGGTCG,-0.172
5,ACACAAGG,0.191
6,GGGAAGAA,-0.12
7,AGCAGGAA,0.395
8,CCGGAACG,-0.249
9,AAGGATCT,-0.142
10,CGAAACTC,-0.226
11,ATAGACTG,-0.0804
12,ATCCGAAT,0.0428
13,CTGTGATA,0.0306
14,TCGAACCA,-0.128
15,CGTCGTCA,-0.18
16,AGTCAGGC,0.217
17,CATCTGAA,-0.223
18,GAATCATC,0.0123
19,GGCGGTTA,-0.119
20,GCTCGTAC,-0.124
21,ACCGATTC,-0.236
22,GCAAGAGA,0.162
23,AGCATTAA,-0.0841
24,CTGTGGTC,-0.0184
25,CTATCAGA,-0.232

row,Sequence,PBM E-score
1,ACGCGCGC,0.184
2,AAACCCCA,0.0314
3,AATACATG,0.413
4,CGATATTC,-0.261
5,ACCTCTAA,-0.196
6,AGGCTGGG,-0.0602
7,ACGACCAG,0.0678
8,TGTATTAA,0.306
9,CTGCGAAC,0.0471
10,AAGGACAG,-0.152
11,GTTAGGTA,0.26
12,ATATCGTA,0.0251
13,ATAGAGCC,-0.0336
14,GCGACGGA,-0.333
15,ACAGGAGG,-0.0434
16,AGATATAC,0.0941
17,AATGGAGG,-0.16
18,GGGGCCTA,-0.0941
19,CTATCAAG,0.0164
20,GTCTTCAC,-0.184
21,GTAGTAAA,0.187
22,ACAACTAC,0.15
23,GCACGTAA,0.293
24,ATCCGCAG,-0.0547
25,CGCTATAG,-0.143

row,Sequence,PBM E-score
1,GTCTTCCA,-0.174
2,ACATAATG,0.182
3,ACGATAAT,0.0572
4,ATAATTAC,0.258
5,AGAAACGC,-0.00015
6,ATGTCCGG,-0.212
7,AAAGGAGA,-0.0548
8,ACCGGCTA,-0.0818
9,GGAAGCGA,-0.187
10,GCTTGACC,-0.215
11,AAGGATAA,-0.00925
12,CCAAGGTA,0.132
13,GGCAGGTA,0.277
14,ATATTAGA,0.232
15,GTGTTAAA,0.384
16,CCATGCCG,-0.0178
17,AAAGACTC,-0.264
18,CGCTCAGC,-0.284
19,CGTCTGCA,-0.0254
20,GAAATGTA,0.0874
21,CGAGTGAA,0.0928
22,AAAAAGTT,0.0612
